Source: the supplement of paper PMC4723716
± gives the standard deviation of the averaged measurements. The full ranking holds about 3,600 compounds; the median of “viability index relative to DMSO control” is about 0.81, and the lowest 2% start at about 0.13. This is one part of the list.

Tested on: Plasmodium falciparum NF54 stage V gametocytes
Experiment: viability index relative to DMSO control (fraction); higher = less gametocyte killing
Conditions: 1.25 µM, incubation time: 72 h
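Also: 384-well serum-free SaLSSA: MitoTracker Red CMXRos staining with saponin lysis, high-content imaging, treated-well particle count divided by plate-mean count of DMSO wells.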

Structure (SMILES)	viability index
CCC(C(=O)Nc1sccc1C#N)c1ccccc1 (stereo not given)	1.02
CCOC(=O)C1=C(C)NC2=C(C(=O)CC(c3ccc(OC)c(OC)c3)C2)C1c1ccc(Br)cc1 (stereo not given)	0.367
O=C(Nc1ccc(SC(F)(F)F)cc1)Nc1cccnc1N1CCC(C(F)(F)F)CC1	1.02 ± 0.065
Cc1ccc(C)c(CN2C(=O)c3ccccc3S(=O)(=O)c3ccc(C(=O)NCCCN4CCCC(C)C4)cc32)c1 (stereo not given)	0.96
COc1cc(NCCCC(C)N)c2ncccc2c1 (stereo not given)	0.627
COc1ccc(NC2=CC(=O)CC(c3ccccc3)C2)c(OC)c1 (stereo not given)	0.816
COc1ccc(S(=O)(=O)N=C2C=C(Nc3ccccc3OC)C(=O)c3ccccc32)cc1	0.0579
CCOC(=O)c1ccc(Nc2nc(N)c3cc(OC)c(OC)cc3n2)cc1	0.329
NNC(=O)CNC(c1ccccc1)c1cc(Br)ccc1NC(=O)c1ccccc1Br (stereo not given)	0.955
CCC(CC)CN1CCC(O)(c2ccc3oc(C(=O)Nc4ccc5c(c4)OCO5)cc3c2)CC1	0.779
COc1ccc(C2CC(=O)C3=C(C2)NC(C)=C(C(=O)OC(C)C)C3c2cccc(Cl)c2Cl)cc1OC (stereo not given)	0.425
CN(C)CC(C)(C)CNCc1cc(-c2ccccc2)ccc1O	0.596
Cc1ccc(NC(=O)c2cc(C(=O)c3cc(Cl)ccc3O)cn(-c3ccc(C)c(C)c3)c2=O)cc1C	0.767
Cc1ccc(Cn2c(C)c3cnn(CC(=O)O)c(=O)c3c2C)cc1	1.51
CCCCn1c(=N)c(C(=O)NC(C)c2ccccc2)cc2c(=O)n3cccc(C)c3nc21 (stereo not given)	0.802
Cc1cc2nc(NC(=N)N)nc(C)c2cc1C	0.718
COC(=O)c1ccc(Nc2nc(NCc3ccco3)c3ccccc3n2)cc1	0.714
N#Cc1cn(-c2ccc(Cl)cc2)c(=O)n(Cc2c(Cl)cccc2Cl)c1=O	1.08
Cc1ccc(S(=O)(=O)N=C(NS(=O)(=O)c2ccc(C)cc2)c2ccccc2)cc1	0.943
CCN(CC)c1ccc(NCc2ccc3c(c2)OCO3)cc1	1
CCCCCn1c(C)[n+](CCCC)c2cc(Cl)c(Cl)cc21	0.746
FC(F)(F)COc1ccc(OCC(F)(F)F)c(-c2ncnn2-c2ccccc2)c1	0.755
CCCn1c(SCC(=O)Nc2ccccc2Cl)nc2c1c(=O)n(C)c(=O)n2C	0.849
O=C(Nc1ccccc1)C1Cc2ccccc2CN1S(=O)(=O)c1ccc(F)cc1 (stereo not given)	0.954
Cc1ccc(-c2cc3c(nn2)-c2ccccc2C3=O)cc1	0.65
